# Results as given in PubChem BioAssay AID924 (National Center for Advancing Translational Sciences (NCATS), 2007).
# The campaign covered roughly 130,000 compounds. About 1,200 (0.92%) were called active. The inconclusive results got no clear call from the source; some entries with a clear call stand among them for comparison. Calls come from the whole dose curve; as a rule, active = well fitted cell-killing curve with a large enough effect; inconclusive = small, poorly fitted or top-dose-only effect; inactive = no such curve, though single readings can be large or run the other way. A potency beside an inconclusive call is a rough fit, not a confirmed value.
# Test: qHTS Screen for Compounds that Selectively Target Cancer Cells with p53 Mutations: Cytotoxicity of p53ts Cells at the Permissive Temperature; note: nearly all actives have a fitted effect of over 55% in size;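 for activity change, negative = cytotoxicity: 0% = DMSO and -100% = full killing by reference compound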
# Settings: H1299-p53A138V at 32C, ATP luminescence viability, 24 h; activity change, negative = cytotoxicity: at 46.1 µM (top of the series)
# Procedure, shortened: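 H1299-p53 A138V cells (temperature-sensitive p53) exposed 24 h to up to 46 uM compound at 32C, where p53 is wild-type in conformation. Viability read as ATP luminescence and normalised to DMSO and 100 uM tamoxifen. AC50 fitted with the Hill equation.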
# Potency is the fitted concentration of half-maximal effect; tags give direction and shape of the fitted curve.
SMILES,"activity change, negative = cytotoxicity",Potency
O=[N+]([O-])c1ccc([C@@H](Nc2ccccc2)c2ccc3cccnc3c2O)cc1,inactive: -18.6% [at 9.22 µM],
CCCC(=O)Nc1cccc(-c2nc3cc(C)c(C)cc3o2)c1,,active: 15.8 µM
CCNc1ncc2nc(-c3ccccc3)c(=O)n(Cc3ccc(F)cc3)c2n1,,"inconclusive: 15.8 µM [cytotoxic, single point]"
O=C(Nc1ccc2nc(-c3ccc(Br)o3)[nH]c2c1)c1ccco1,,"inconclusive: 15.8 µM [cytotoxic, partial curve]"
CC(C)c1ccc(Nc2cc(C(=O)NCCCN(C)Cc3ccccc3)c3ccccc3n2)cc1,,"inconclusive: 25.1 µM [cytotoxic, single point]"
CCn1c2ccccc2c2nnc(SCC(=O)NCCOC)nc21,inactive: 2.19%,
NC(=O)C[C@@H](N)c1nn[nH]n1,inactive: -10.7% [at 9.22 µM],
CC(Oc1ccccc1F)C(=O)Nc1ccc2ccccc2c1 (stereo not given),,"inconclusive: 10 µM [cytotoxic, partial curve]"
CCOC(=O)C1CCCN(C(=O)c2cc3c(Cl)nc4ccccc4c3s2)C1 (stereo not given),inactive: -0.35%,
CCOC(=O)c1ccc(NC(=O)CSc2cc(-c3ccccc3)nc(C)n2)cc1,inactive: -4.43%,
CCOC(=O)C(C)Oc1cccc2c(=O)n(CC(=O)NCc3ccc4c(c3)OCO4)ccc12 (stereo not given),inactive: -6.4%,
COc1cccc(-c2cc(C(=O)N3CCCCCC3)no2)c1,,active: 12.6 µM
CCN(CC)c1ccc(C(=O)Nc2cccc(F)c2)cc1,,active: 12.6 µM
COc1ccc(-c2cc(C(F)(F)F)nc(S(C)(=O)=O)n2)cc1OC,,"inconclusive: 31.6 µM [cytotoxic, single point]"
CC1(C)CC(=O)c2sc(NC(=O)c3cccs3)nc2C1,,active: 1.58 µM
O=S(=O)(Nc1cccc(-c2ccc(N3CCOCC3)nn2)c1)c1cc(C(F)(F)F)ccc1Cl,,"inconclusive: 12.6 µM [cytotoxic, partial curve]"
CCC(C(=O)OC)n1nnc2sc(-c3ccccc3)cc2c1=O (stereo not given),,"inconclusive: 20 µM [cytotoxic, single point]"
COc1ccc2c(c1)c(=O)c(C(=O)c1ccc(C)cc1)cn2Cc1ccccc1F,,"inconclusive: 35.5 µM [cytotoxic, single point]"
Cc1ccccc1C(=O)Nc1cccc(-c2cn3cccnc3n2)c1,inactive: 7.29%,
CCCN1CCCc2cc(CN)ccc21,,"inconclusive: 31.6 µM [cytotoxic, single point]"
O=C(NC1=NCCS1)c1csc2ccccc12,,active: 12.6 µM
CN(C)c1ccc(-c2cc(N(C)Cc3ccco3)ncn2)cc1,,active: 12.6 µM
Cn1c(C(C#N)/C(=N\S(=O)(=O)c2cccs2)c2ccccc2)nc2ccccc21 (stereo not given),,"inconclusive: 31.6 µM [cytotoxic, single point]"
O=C(/C=C\c1ccccc1OC(=O)c1ccccc1F)c1cc2ccccc2o1,inactive: 2.41%,
Cc1ccc(NC(=O)c2nc(S(=O)(=O)Cc3cccc(C)c3)ncc2Cl)cc1,,active: 17.8 µM

SMILES,"activity change, negative = cytotoxicity",Potency
Cc1cccc2cc3c(nc12)SC(=NCC1CCCO1)N(Cc1ccco1)C3 (stereo not given),,"inconclusive: 7.94 µM [cytotoxic, partial curve]"
COc1ccc(NC(=O)CSc2nc(-c3ccc(OC)cc3)cc(=O)[nH]2)cc1,,"inconclusive: 15.8 µM [cytotoxic, partial curve]"
O=C(Nc1ccccc1C(=O)O)c1cccc(S(=O)(=O)N2CCCC2)c1,,"inconclusive: 31.6 µM [cytotoxic, single point]"
COc1ccc(-c2csc(NC(=O)COC(=O)Cc3ccc(Cl)cc3Cl)n2)cc1,,"inconclusive: 35.5 µM [cytotoxic, single point]"
CCCCCCC#CC1C=CC(OC(C)=O)C(COC(C)=O)O1 (stereo not given),inactive: -7.8% [at 9.22 µM],
COc1ccccc1CCNC(=O)c1cc2ccccn2n1,inactive: -29.8%,
CCCCNc1cc(NC2CCCCC2)c2c3c(onc13)-c1ccccc1C2=O,inactive: 7.64%,
Cc1c(NC(=O)c2cc3nc(-c4ccc(Br)cc4)cc(C(F)(F)F)n3n2)c(=O)n(-c2ccccc2)n1C,,"inconclusive: 0.282 µM [cytotoxic, full curve]"
O=C(Nc1ccccc1C(F)(F)F)c1noc2c1CCCCC2,,active: 12.6 µM
CC(=O)c1ccc(NC(=O)c2ccn[nH]2)cc1,,active: 12.6 µM
Cc1nc2nc(-c3cccs3)cn2nc1C,,"inconclusive: 15.8 µM [cytotoxic, partial curve]"
O=C(Nc1cnc2ccccc2c1)N1CCCCC1,,"inconclusive: 10 µM [cytotoxic, partial curve]"
Cc1ccc(NC(=O)C2CCCN(c3nnc(C)c4c(C)n(-c5ccccc5)nc34)C2)cc1Cl (stereo not given),,"inconclusive: 20 µM [cytotoxic, single point]"
Cc1cc(C)cc(OCC(=O)Nc2cccc(-c3nc4ccccc4[nH]3)c2)c1,,"inconclusive: 25.1 µM [cytotoxic, single point]"
N#CCCS(=O)(=O)c1nnnn1-c1ccccc1,,"inconclusive: 31.6 µM [cytotoxic, single point]"
Cc1ccc(C)c(NS(=O)(=O)c2ccc3oc(=O)c4ncn(C)c4c3c2)c1,,"inconclusive: 10 µM [cytotoxic, partial curve]"
COc1cc(S(=O)(=O)NC2CCCCC2)ccc1Cl,inactive: 47%,
NC(=O)N/N=C1\CC[C@H](O)C[C@@H]1CC(=O)O,inactive: -3.36% [at 9.22 µM],
O=C(CSc1ccc(-c2nc3ccccc3[nH]2)cn1)N1CCN(C(=O)c2ccco2)CC1,,"inconclusive: 31.6 µM [cytotoxic, single point]"
O=C(O)c1cccc(COc2ccc(CO)cc2Cl)c1,,active: 5.01 µM
COc1ccc(CCNC(=O)Cn2c(-c3ccc(F)cc3)cc(C(C)=O)c2C)cc1OC,inactive: 11%,
COc1cc(-c2ccno2)ccc1S(=O)(=O)N1CCN(c2ccccc2)CC1,inactive: -0.0158%,
CCOc1ccccc1C(=O)NCc1ccc2c(c1)CCN2C(=O)c1ccccc1,inactive: 19.7%,
Clc1cccc(-n2ncc3c(NCCCN4CCOCC4)ncnc32)c1,,"inconclusive: 28.2 µM [cytotoxic, partial curve, poor fit]"
CC(C(=O)Nc1ccccc1)n1nnc2sc3c(c2c1=O)CCCC3 (stereo not given),inactive: 1.41%,

SMILES,"activity change, negative = cytotoxicity",Potency
Cc1c2cnn(-c3ccccc3)c(=O)c2c(C)n1C(C)C(=O)NCc1cccc(Br)c1 (stereo not given),inactive: 14.5%,
CCOCCCn1c(=N)c(C(=O)NCc2ccccc2)cc2c(=O)n3ccccc3nc21,inactive: -5.58%,
COc1cnn(-c2ccccc2)c(=O)c1N(C)C,inactive: 1.03%,
Cn1c(/C(C#N)=C/c2ccc(C(F)(F)F)cc2)nc2ccccc21,,"inconclusive: 15.8 µM [cytotoxic, single point]"
COc1ccc(OC)c(NC(=O)CS(=O)(=O)Cc2nc(-c3ccc(C)cc3)oc2C)c1,inactive: 1.03%,
CN1CCN2c3ccccc3Cc3ccccc3C2C1 (stereo not given),,"inconclusive: 31.6 µM [cytotoxic, single point]"
[N-]=[N+]=Nc1nc2c(N)ncnc2n1C1OC(CO)C(O)C1O (stereo not given),,active: 2 µM
CCN(CC)C(=O)C1CCCN(c2ncnc3c2c(-c2ccccc2)cn3-c2cccc(C)c2)C1 (stereo not given),inactive: 29.6%,
CSc1ccc(C2C(C#N)=C(N)Oc3c2ccc(=O)c2c(C)oc(C)c32)cc1 (stereo not given),,"inconclusive: 0.126 µM [cytotoxic, full curve, poor fit]"
COCCCNC(=O)C1CCN(c2nc3ccc(Cl)cc3[nH]2)CC1,inactive: 21.8%,
CCOC(=O)N1CCN(Cc2nc(N)nc(Nc3ccc(Oc4ccccc4)cc3)n2)CC1,,"inconclusive: 31.6 µM [cytotoxic, single point]"
Cc1sc2ncn(CC(=O)N3CCN(c4ccccc4)CC3)c(=O)c2c1S(=O)(=O)N1CCC(C)CC1,inactive: 3.41%,
CCN(C(=O)c1ccco1)c1nnc(-c2ccc(OC)cc2)s1,,"inconclusive: 2.51 µM [cytotoxic, full curve, poor fit]"
Cc1cc(C(=O)COC(=O)C2COc3ccccc3O2)c(C)n1CC1CCCO1 (stereo not given),inactive: -6.17%,
COC(=O)c1ccccc1NC(=O)c1nc(S(=O)(=O)Cc2cccc(C)c2)ncc1Cl,inactive: -12.9%,
CC(=O)Nc1ccc(NC(=O)c2ccc(COc3ccc(Cl)cc3Cl)o2)cc1,,"inconclusive: 31.6 µM [cytotoxic, single point]"
CCc1ccc(-c2nc3cc(NC(=O)c4cc5ccccc5cc4OC)ccc3o2)cc1,,"inconclusive: 12.6 µM [cytotoxic, single point]"
Cc1ccc(C)c(CN2C(=O)c3ccccc3S(=O)c3ccc(C(=O)N4CCN(c5ccccc5F)CC4)cc32)c1 (stereo not given),,"inconclusive: 3.16 µM [cytotoxic, full curve, poor fit]"
Cc1ccc(-c2nc3cc(NC(=O)C(C)C)ccc3o2)cc1,,"inconclusive: 15.8 µM [cytotoxic, partial curve]"
CCOC(=O)c1ccc(NC(=O)CSc2nnc(CNC(=O)c3ccc(OC)cc3)n2CC)cc1,,"inconclusive: 15.8 µM [cytotoxic, single point]"
CC(C)(C)OC(=O)N1CCC(c2c(C(=O)NCCCN3CCc4ccccc4C3)cnn2-c2ccccc2)CC1,inactive: -4.18%,
CC(C)c1ccc(NC(=O)c2ccc3c(c2)CCCN3S(C)(=O)=O)cc1,,active: 12.6 µM
Cc1nc2sccn2c(=O)c1CCN1CCC(=C(c2ccc(F)cc2)c2ccc(F)cc2)CC1,,"inconclusive: 31.6 µM [cytotoxic, single point]"
Cc1occc1C(=O)Nc1ccc2c(c1)CCC2,,"inconclusive: 12.6 µM [cytotoxic, partial curve]"
CCOc1ccc(NC(=O)Nc2cccc(C)n2)cc1,inactive: -22%,
